The campaign covered roughly 50,000 compounds. About 800 (1.6%) showed an effect of 50% or more. This is one part of the list.
Each compound was assayed against Bcl-2-like protein 10 (Homo sapiens) (UniProt Q9HD36) (assay: Phenotype converters, Bcl-B/TR3 peptide binding displacement, primary biochemical FP (AID 1240;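 further: 0% = Bcl-B with tracer peptide and DMSO and 100% = tracer peptide lacking Bcl-B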)). Settings: GST-Bcl-B / FITC-TR3 peptide fluorescence polarization; stronger effect = higher value; compound at 3.75 mg/L.
Chain of UniProt Q9HD36 (Q9HD36 whole entry, looked up): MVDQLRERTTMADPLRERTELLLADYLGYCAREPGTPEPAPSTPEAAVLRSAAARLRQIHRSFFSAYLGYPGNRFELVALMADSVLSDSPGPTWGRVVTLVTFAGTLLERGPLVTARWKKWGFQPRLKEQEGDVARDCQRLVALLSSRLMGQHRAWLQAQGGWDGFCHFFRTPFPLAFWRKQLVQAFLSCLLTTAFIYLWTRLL

Compared with CCc1ccccc1NC(=O)C(C)Oc1ccc(OC)cc1 (centres undefined), COc1ccc(OCC(=O)Nc2c(C)cccc2C)cc1 is lower in displacement: 9.1% for the first, 6.3% for the second.

Going from O=C(NCCc1ccc(F)cc1)C(=O)Nc1cccc(Cl)c1 to COc1ccc(CCNC(=O)C(=O)NCc2ccc(C)cc2)cc1OC, the displacement rises from -0.4% to 17.7%.

Going from CCOC(=O)C1=C(C)NC2=C(C(=O)c3ccccc32)C1c1ccccc1[N+](=O)[O-] (centres undefined) to CC1=CC(C)(C)N(CN2C(=O)c3ccccc3C2=O)c2ccccc21, the displacement falls from -3.5% to -4.7%.

First: O=C(Nc1ccc([N+](=O)[O-])cc1)C1C(c2ccccc2)=C1c1ccccc1
Second: O=C(Nc1ccc(-c2nc3ccccc3[nH]2)cc1)c1ccccc1[N+](=O)[O-]
The displacement of the first is lower: -4.7% for the first, 15.9% for the second.

First: CCCNC(=O)OCC12CC3CC(CC(C3)C1)C2
Second: O=[N+]([O-])c1ccc(-n2nncc2C23CC4CC(CC(C4)C2)C3)cc1
The displacement of the first is higher: 0.2% for the first, -4.7% for the second.

Compared with Cc1nc(NC(=O)c2ccccc2)sc1-c1csc(Nc2ccc(O)cc2)n1, O=C(Nc1ccc(-c2nc3ccccc3s2)c(O)c1)c1ccc(-c2cccc([N+](=O)[O-])c2)o1 is higher in displacement: -1.9% for the first, 6.1% for the second.

First: COC(=O)c1ccc(-n2c(C)ccc2-c2ccccc2)cc1
Second: COC(=O)c1ccc(/C=N/c2c(-c3ccco3)nc3ccccn23)cc1
The displacement of the first is lower: 12.8% for the first, 14.4% for the second.

Compared with O=C(/C=C/c1ccccc1)N1CCN(c2nc3ccc([N+](=O)[O-])cc3s2)CC1, O=C(c1cccs1)N1CCN(c2cc(N3CCCC3)c(F)cc2[N+](=O)[O-])CC1 is lower in displacement: 15% for the first, -1.4% for the second.

Compared with Cn1c(CC(O)(c2ccccc2)c2ccccc2)nc2ccccc21, Cc1ccccc1NCc1nc2ccccc2n1Cc1ccccc1 is lower in displacement: 15.7% for the first, -1.6% for the second.

Going from COc1ccc(N(CC(=O)NCC(C)C)S(=O)(=O)c2ccc(C)cc2)cc1 to Cc1ccc(NC(=O)CN(c2cccc(C(F)(F)F)c2)S(C)(=O)=O)cc1, the displacement falls from 0.8% to -8.9%.

Compared with Oc1ccccc1/C=N/Nc1nc(N2CCOCC2)nc(N2CCOCC2)n1, CN1CCN(Cn2c(O)c(N=NC(=O)c3ccccc3)c3ccccc32)CC1 is lower in displacement: 6.9% for the first, -16.9% for the second.

First: COc1cc(C2NC(=O)N(C)C(C)=C2C(=O)OCc2ccccc2)cc(Br)c1O (centres undefined)
Second: COc1cc(C2CC(=O)Nc3c2ccc2ccccc32)cc(Br)c1OC (centres undefined)
The displacement of the first is lower: -4.8% for the first, 7.1% for the second.

Compared with CC(=O)c1sc(N)c(C(=O)OC(C)C)c1C, CC(=O)OCc1cc(=O)n(C)c(=O)n1C is lower in displacement: 6.2% for the first, -9.3% for the second.

Compared with Cc1ccc(NC(=O)c2ccc(C)o2)cc1, O=C(Nc1ccc(OC(F)F)cc1)c1cccs1 is lower in displacement: 2.5% for the first, -0.2% for the second.

First: COc1ccc(OC)c(S(=O)(=O)NCc2ccccn2)c1
Second: COc1cccc(C2(c3cccc(OC)c3)CC2C(=O)NCc2ccccc2)c1 (centres undefined)
The displacement of the first is higher: 14% for the first, -0.5% for the second.

Going from CCOc1ccc(C(=O)Nc2cccc(-c3nc4ncccc4o3)c2C)cc1Cl to Cc1cc(OCC(=O)Nc2ccccc2-c2ccccc2)ccc1Br, the displacement rises from 3.5% to 5.4%.

First: O=C(Nc1ccccc1NC(=O)c1ccc(F)cc1)c1ccc(F)cc1
Second: COc1ccc(CN(C(=S)Nc2ccccc2)C2CC(=O)N(c3ccc(F)cc3)C2=O)cc1 (centres undefined)
The displacement of the first is higher: 7.7% for the first, -13.5% for the second.

First: CCc1ncc(C(O)c2ccccc2OC)n1C (centres undefined)
Second: CCOc1ccccc1/C=C1\C(=O)NC(=O)N(c2ccc(Br)c(C)c2)C1=O
The displacement of the first is higher: 8.3% for the first, -7.9% for the second.

First: Cc1ccc2cccc(SCC(=O)c3ccc(Br)cc3)c2n1
Second: O=C(N/N=C/c1ccc(Br)cc1)c1cc(=O)[nH]c2ccccc12
The displacement of the first is lower: 6.1% for the first, 32.1% for the second.

Going from CCOC(=O)C(CCOCCOc1c(Cl)cc(Cl)cc1Cl)C(=O)OCC to CCOC(=O)C(CCCCCOc1ccccc1C(C)(C)C)C(=O)OCC, the displacement falls from 12.1% to 9.4%.

Going from COc1ccc(C2=NN(C(=O)CCC(=O)O)C(c3ccc([N+](=O)[O-])cc3)C2)cc1 (centres undefined) to O=[N+]([O-])c1ccc(Oc2ccc(S(=O)(=O)N3CCOCC3)cc2)cc1, the displacement falls from 12.6% to 4.5%.

Going from COc1cc2c(cc1OC)C1(CCCC1)CNC2c1cccc([N+](=O)[O-])c1 (centres undefined) to COc1cc(CN2CCN(C3CCN(Cc4ccccc4)CC3)CC2)cc(OC)c1OC, the displacement falls from -3.8% to -4.6%.

First: CN(C(=O)c1ccc(F)cc1)C1CCCCC1
Second: COc1ccc(N2CC(C(=O)N/N=C/c3ccc(F)cc3)CC2=O)cc1 (centres undefined)
The displacement of the first is higher: 3.1% for the first, -4.9% for the second.

First: CCCc1nnc(NC(=O)CSc2nc3ccccc3s2)s1
Second: CC(C)c1nnc(NC(=O)Nc2ccccc2)s1
The displacement of the first is lower: -17.3% for the first, 11.8% for the second.

Going from CCCOc1ncnc2sc3c(c12)CCCC3 to N#Cc1c(NC(=O)c2cnn3c(C(F)(F)F)cc(-c4ccccc4)nc23)sc2c1CCCC2, the displacement falls from -3.9% to -6.1%.

Going from CCOc1ccc(N2C(=O)CC(Cc3ccccc3)C2=O)cc1 (centres undefined) to COc1ccc(C(=O)/C=C/NCC(=O)c2ccccc2)cc1, the displacement falls from 9.5% to -15%.

Going from CCOc1cc(/C=C2/C(=N)N3N=C(CC)SC3=NC2=O)ccc1OC(=O)c1cccc([N+](=O)[O-])c1 to Cc1cccc(N2C(=O)NC(=O)/C(=C/c3ccc(F)cc3)C2=O)c1, the displacement falls from -2.3% to -15.5%.

Compared with CCCc1c(O)nc(SCCN(CCC)CCC)n(-c2ccccc2)c1=O, O=C1c2cccc3cccc(c23)C(=O)N1CCCCO is higher in displacement: -12.7% for the first, 6.6% for the second.

First: COC(=O)C1=C(C)N=c2s/c(=C/c3cccnc3)c(=O)n2C1c1ccc(C(C)C)cc1 (centres undefined)
Second: CC(=O)N1c2ccccc2NC2=C(C(=O)CC(C)(C)C2)C1c1cccc(F)c1 (centres undefined)
The displacement of the first is higher: 11.7% for the first, -6.6% for the second.

Going from CN(C)c1ccc(NS(=O)(=O)c2cccc([N+](=O)[O-])c2)cc1 to CS(=O)(=O)c1ccc2nc(NS(=O)(=O)c3ccc(F)cc3)sc2c1, the displacement falls from 5.4% to -1.9%.

Going from Brc1ccccc1NCc1ccncc1 to O=c1oc2ccc3ccccc3c2cc1-c1ccc(I)cc1, the displacement falls from 10.8% to 5.1%.

Compared with COc1ccc(C(NC(=O)C(c2ccccc2)c2ccccc2)NC(=O)C(c2ccccc2)c2ccccc2)cc1, COc1ccc(OC)c(/C=C/C(=O)c2c(-c3ccccc3)c3cc(Cl)ccc3[nH]c2=O)c1 is lower in displacement: 9.7% for the first, -12.7% for the second.

Compared with Cc1ccc(/C(O)=C2\C(=O)C(=O)N(CCCC(=O)O)C2c2ccccc2F)cc1 (centres undefined), Cc1sc(NC(=O)Cc2ccccc2)c(C(N)=O)c1C is higher in displacement: -2.9% for the first, 11.2% for the second.

Compared with CCN1CCN(CC(O)COc2cc(C)c(Cl)c(C)c2)CC1 (centres undefined), COc1ccc(C2OCC3(CO2)SC2=NCN(C)CN2C3=O)cc1 (centres undefined) is lower in displacement: -0.1% for the first, -11.6% for the second.

Work on CN(C)Cc1c(O)ccc2[nH]cnc12 yielded a displacement of -12%.

Source: PubChem BioAssay AID1240 (Sanford-Burnham Center for Chemical Genomics, 2008)
